Laboratory results as given in paper PMC4336329 (PLoS ONE, 2015).
The campaign covered roughly 310,000 compounds. About 2,200 (0.71%) showed an effect of 50% or more. The effect is printed as a negative number. The list shows a part of the results.

Target: human ether-à-go-go-related gene (hERG) potassium channel (human, UniProt Q12809)
Assay: primary screen, population patch clamp on CHO cells stably expressing hERG

human ether-à-go-go-related gene (hERG) potassium channel, sequence (Q12809 whole entry, looked up): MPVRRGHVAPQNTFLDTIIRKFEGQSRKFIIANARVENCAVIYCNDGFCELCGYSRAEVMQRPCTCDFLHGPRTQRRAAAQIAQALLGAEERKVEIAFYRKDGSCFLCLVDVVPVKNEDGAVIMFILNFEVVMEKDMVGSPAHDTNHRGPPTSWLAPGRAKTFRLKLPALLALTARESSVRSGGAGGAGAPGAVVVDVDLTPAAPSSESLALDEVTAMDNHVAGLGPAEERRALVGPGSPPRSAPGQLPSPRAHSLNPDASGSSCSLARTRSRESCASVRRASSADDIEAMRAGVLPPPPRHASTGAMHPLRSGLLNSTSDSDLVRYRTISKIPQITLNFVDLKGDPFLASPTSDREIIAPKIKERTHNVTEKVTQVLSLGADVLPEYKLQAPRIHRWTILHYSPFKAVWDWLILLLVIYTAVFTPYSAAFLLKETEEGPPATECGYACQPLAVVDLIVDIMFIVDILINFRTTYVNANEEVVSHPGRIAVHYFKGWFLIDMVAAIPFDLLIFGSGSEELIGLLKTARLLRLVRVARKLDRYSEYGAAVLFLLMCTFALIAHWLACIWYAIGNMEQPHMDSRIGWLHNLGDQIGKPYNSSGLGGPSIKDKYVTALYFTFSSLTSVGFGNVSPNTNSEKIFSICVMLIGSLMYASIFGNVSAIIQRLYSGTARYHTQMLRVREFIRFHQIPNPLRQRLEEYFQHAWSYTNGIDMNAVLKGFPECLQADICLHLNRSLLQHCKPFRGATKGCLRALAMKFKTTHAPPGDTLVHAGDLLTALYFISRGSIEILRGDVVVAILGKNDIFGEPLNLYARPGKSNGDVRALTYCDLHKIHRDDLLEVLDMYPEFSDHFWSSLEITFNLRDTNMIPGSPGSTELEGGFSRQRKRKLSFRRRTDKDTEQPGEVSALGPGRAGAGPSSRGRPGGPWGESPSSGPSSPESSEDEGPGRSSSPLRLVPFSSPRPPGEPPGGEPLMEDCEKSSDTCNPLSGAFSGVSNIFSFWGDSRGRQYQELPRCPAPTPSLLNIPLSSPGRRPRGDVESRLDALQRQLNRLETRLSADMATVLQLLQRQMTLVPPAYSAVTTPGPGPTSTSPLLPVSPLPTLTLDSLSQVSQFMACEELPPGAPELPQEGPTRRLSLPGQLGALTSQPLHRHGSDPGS

SMILES | hERG current change (%, negative = inhibition) at 1uM [%]
COCCN(C(=O)c1ccccc1)c1nc(-c2ccc(OC)cc2)cs1 | 11.5
O=C(O)c1cccc(Cn2cc(Cl)cn2)c1 | 11.4
Cc1ccccc1N1C(=O)CC(Sc2nnc(-c3ccccc3)o2)C1=O (centres unmarked) | 5.38
CC12CC3CC(C)(C1)CC(C(=O)Nc1nncs1)(C3)C2 | 13.7
CCN(CC)S(=O)(=O)c1ccc(NC(=O)Cn2c(=O)oc3ccccc32)cc1 | 13.6
COc1ccc(-n2c(C)cc(C(=O)CN3C(=O)C(=O)N(Cc4ccccc4)C3=O)c2C)cc1 | 10.6
CC(C)NS(=O)(=O)c1ccc(OCC(=O)NC2CCCCCC2)cc1 | 16.3
COc1ccc(S(=O)(=O)Nc2cc3c4c(c2)CC(=O)N4CCC3)cc1C | 6.54
O=C(NCCC(=O)N1CCC2(CC1)NCCc1[nH]cnc12)c1cccc(C(F)(F)F)c1 | 15
O=C(Nc1cccc(Cl)c1)OCc1cn(-c2ccccc2)nn1 | -16.2
Cc1cccc(NC(=O)c2cccnc2Cl)n1 | 15.5
CCCc1nc2ccccc2c(C(=O)OCC(=O)NCc2ccc3c(c2)OCO3)c1CC | 8.88
O=C(NCC1CCCN1S(=O)(=O)c1cccs1)c1cccc([N+](=O)[O-])c1 (centres unmarked) | 1.31
CCOc1ccc(C2/C(=C(\O)c3c(C)[nH]c(C(=O)OC)c3C)C(=O)C(=O)N2CCN(C)C)cc1 (centres unmarked) | -2.61
O=C(O)C(=O)O.O=C(c1ccco1)N1CCN(Cc2ccc(Br)cc2)CC1 | -2.49
CCN(C(=O)C1CCCN1S(=O)(=O)c1ccc2c(c1)n(C)c(=O)c(=O)n2C)c1ccccc1 (centres unmarked) | 0.439
Cc1cc2nc(C)c(=O)n(C)c2cc1C | 18.9
O=C(Nc1cc(S(=O)(=O)N2CCOCC2)ccc1O)c1ccco1 | -3.59
COC(=O)COc1cccc2c(=O)n(CC(=O)NCc3ccc(F)cc3)ccc12 | 5.11
Clc1ccc(C=NC23CN4CN(CN(C4)C2)C3)cc1 | 7.81
COC(CNC(=O)C1CCN(S(=O)(=O)c2ccc3nc4c(c(C(=O)O)c3c2)CC(C)CC4)CC1)OC (centres unmarked) | 38.6
CCOC(=O)Cn1c(CN(C)Cc2ccccc2)nc2c1c(=O)n(C)c(=O)n2C | 5.38

SMILES | hERG current change (%, negative = inhibition) at 1uM [%]
Cc1cccc(CCNC(=O)Cc2ccc(NC3=NC4CS(=O)(=O)CC4S3)cc2)c1 (centres unmarked) | 12.6
O=C(NC1CCN(S(=O)(=O)c2ccccc2)CC1)C1CCCCC1 | 12.1
CCOC(=O)CSc1cc(CSc2ccccc2)nc(-c2ccccc2)n1 | 6.5
CCc1ccc2oc(C(=O)Nc3nonc3C)c(C)c2c1 | 3.34
COc1ccc(C(c2sc3nc(C)nn3c2O)N2CCCCC2)cc1 (centres unmarked) | 16.6
CCO.CCOC(=O)C1=C(C)Nc2sc(C(=O)c3ccc(OC)cc3)c(N)c2C1c1ccc(C(=O)OC)cc1 (centres unmarked) | 6.77
CCOC(=O)C1CCN(c2c(C(=O)c3ccccc3)cnc3ccc(Cl)cc23)CC1 | 10.8
O=S(=O)(NCCc1csc(-c2cccnc2)n1)c1cccc(F)c1 | 4.96
O=[N+]([O-])c1ccc(N2CCNCC2)cc1NCC1CCCO1 (centres unmarked) | -0.5
CCCc1ccc(OCC(O)CN2CCN(CCO)CC2)cc1.Cl (centres unmarked) | 8.14
Cc1ccc(N=C/C(C(=O)C(F)(F)F)=C(\O)c2ccco2)cc1Cl | -3.55
CCCn1c(SCC(=O)NCc2ccccc2)n[nH]c1=O | 18.1
Cc1nc2ccccc2n1CC(=O)OCC(=O)NC1CC1 | 16.5
CC1(c2cccc(Br)c2)NC(=O)N(CC(=O)NC2CCCCC2)C1=O (centres unmarked) | -6.62
COC(=O)C(CC(=O)c1ccc(Br)cc1)n1nc(C)cc1C (centres unmarked) | 14.3
O=C(C[n+]1cccc2ccccc21)c1ccc(Cl)cc1.[Br-] | 8.92
CCn1c(SCC(=O)N/N=C/C=C\c2ccco2)nc2ccccc21 | 16.4
CC1(C)CC(CNCCC(c2ccc(F)cc2)c2ccco2)CCO1 (centres unmarked) | -18.7
S=c1sc(SCCOc2ccccc2)nn1-c1ccccc1 | -2.64
O=C(COc1ccc(Br)cc1CNC1CCCCC1)NCCc1ccccc1 | -59
O=C(Nn1cnnc1)c1ccc(Br)s1 | 20.2
CC(C)NC(=O)c1onc(CSc2ccccc2)c1C(=O)O | 10

SMILES | hERG current change (%, negative = inhibition) at 1uM [%]
Fc1ccc(-c2csc3ncnc(N4CCc5ccccc5C4)c23)cc1 | 6.49
NC(=O)COC(=O)c1ccc(S(=O)(=O)NCc2ccco2)cc1 | 12.5
CCc1cc(C(=O)N/N=C/c2ccc(O)cc2)c2ccccc2n1 | 9.78
CCOC(=O)c1c(NC(=O)c2cccc([N+](=O)[O-])c2C(=O)O)sc2c1CCCC2 | 11.9
COc1ccc(NC(=O)C/C(C)=N/NC(=O)c2ccccn2)c(OC)c1 | 9.32
O=C(CN(C(=O)CCC(=O)Nc1ccccn1)c1cccc(F)c1)NCc1ccco1 | 15.7
CCOc1ccc(N2C(=O)CC(Sc3ccccc3C(=O)O)C2=O)c([N+](=O)[O-])c1 (centres unmarked) | 2.89
Cc1cccc(NC(=O)CSc2nnc(-c3ccccc3Br)o2)c1C | 0.594
O=C(CSc1ncc(C(=O)O)n1-c1ccc(F)cc1)NCc1ccc2c(c1)OCO2 | 20.2
Cc1ccc(/C=N/Nc2nnc(Cc3ccccc3)c(=O)[nH]2)o1 | 11.5
O=C(Nc1nc2ccccc2s1)c1c(F)cccc1Cl | 12.3
Cc1cccc(OCC(=O)NNc2c3ccccc3nc3ccccc23)c1 | 6.8
Cc1ccc(CN2CCSc3ccc(C(=O)NCc4ccccn4)cc32)cc1 | -26.3
COc1ccc(NC(=O)Cn2c(=O)n(CC3CCCO3)c(=O)c3cc(OC)c(OC)cc32)c(OC)c1 (centres unmarked) | 8.18
Cc1ccc(C)c(OCCn2cc(/C=C(\C#N)C(=O)NCC3CCCO3)c3ccccc32)c1 (centres unmarked) | 13.4
Cc1ccc(-n2c([O-])nc(-[n+]3ccccc3)c2C=O)cc1 | 12.6
Cc1cc(C(C#N)c2ccc(Cl)cc2)c(Cl)cc1NC(=O)c1cc(I)cc(I)c1O (centres unmarked) | 13
Cc1cccc(C)c1NC(=O)C(C)Sc1n[nH]c(-c2ccncc2)n1 (centres unmarked) | 9.74
COc1ccccc1OC(C)C(=O)N1CC(=O)Nc2ccccc21 (centres unmarked) | 14.4
O=c1c(S(=O)(=O)c2ccc(Cl)cc2)cn(Cc2ccccc2F)c2ccc(F)cc12 | 21.6
CC1(C)CC(=O)C2=C(C1)NC(=O)CC2c1ccc(F)cc1 (centres unmarked) | 0.687
Cc1cccc2cc(C#N)c(SCC(=O)NCC3CCCO3)nc12 (centres unmarked) | 1.51

SMILES | hERG current change (%, negative = inhibition) at 1uM [%]
CCCCCCCCC(=O)N/N=C/c1cccc(Br)c1 | 4.03
COc1ccc(C)cc1NC(=O)CN1C(=O)COc2ccc(S(=O)(=O)N3CCCCC3)cc21 | 9.63
COc1ccc(OC)c2c(C)cc(NCCN3CCOCC3)nc12 | -6.45
O=C(CN1C(=O)NC2(CCCC2)C1=O)N1CCN(S(=O)(=O)c2cccc(F)c2)CC1 | 15.1
Cc1nc2ccccc2c2oc(C(=O)NCCCN3CC(C)CC(C)C3)cc12 (centres unmarked) | -6.06
CC(C)CNS(=O)(=O)c1cc(C(=O)N2CC(C)OC(C)C2)c(Cl)cc1Cl (centres unmarked) | 9.91
CC(=O)N1CCC(N(C(=O)Nc2ccc(Cl)cc2)C(C)C)CC1 | 6.95
Cc1ccc(-c2cc(-c3ccc(C)cc3)[n+](-c3ccc(C(=O)[O-])cc3)c(-c3ccc(C)cc3)c2)cc1 | 8.45
C/C(=N\NC(=O)Cc1ccc(F)cc1)c1ccc(O)cc1 | 4.1
O=C(OCC(=O)N1CCOCC1)c1ccc2ccccc2c1O | 4.85
COc1ccc(NC(=O)c2cc3n(n2)C(C(F)(F)F)CC(c2ccc4c(c2)OCO4)N3)cc1OC (centres unmarked) | 8.99
COc1ccc(N2CCN(S(=O)(=O)CCNC(=O)CCCc3ccccc3)CC2)cc1 | 6.55
CC(C)N1CC(COc2ccc(Br)cc2)OC1=O (centres unmarked) | -7.76
CC(C)(Oc1ccc(Cl)cc1)C(=O)OCC(=O)Nc1ncc(Cl)cc1Cl | 6.92
Cc1ccc(-c2cc(C(F)F)nc(N3CCC(C)CC3)n2)cc1 | 12.9
Cc1cccc(N2CCN(C(=O)c3ccccc3NC(=O)C3CCCCC3C(=O)O)CC2)c1 (centres unmarked) | 9.99
COc1ccccc1NC(=O)CSc1ccc(-c2cccs2)nn1 | -3.98
COCc1nnc(NC(=O)c2cc(C(=O)OC)cc([N+](=O)[O-])c2)s1 | 2.32
COc1nc(NC(C)C)nc(NC(C)C)n1 | 12.6
CCOC(=O)c1cnc(-n2nc(C)cc2C)nc1NCCc1ccccc1 | 8.69
